Data taken from the supplement of paper PMC4604168 (melanoma cell lines).
This is one part of the list. Repeats are few or missing, and single values can be far off.

What follows are compounds tested on UACC62 (assay: cell count relative to DMSO control; melanoma cells; higher = more viable cells). Conditions: library dose: standard library concentration; 72 h.
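Also: cells treated in 1,536-well plates, then fixed and DAPI-stained, with nuclei counted from automated high-throughput microscope images.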

Compound | cell count
CS(=O)(=O)c1ccc(C(=O)Nc2ccc(Cl)c(-c3ccccn3)c2)c(Cl)c1 [vismodegib] + C[C@@H]1CCN(C(=O)CC#N)C[C@@H]1N(C)c1ncnc2[nH]ccc12 [CP690550] (first compound 5 µM, partner dose 5 µM) | 77.9%
NC1(c2ccc(-c3nc4ccn5c(=O)[nH]nc5c4cc3-c3ccccc3)cc2)CCC1 + CN(NC(=O)CC(=O)NN(C)C(=S)c1ccccc1)C(=S)c1ccccc1 [STA4783] (first compound 2 µM, partner dose 0.03 µM) | 43.7%
CS(=O)(=O)c1ccc(C(=O)Nc2ccc(Cl)c(-c3ccccn3)c2)c(Cl)c1 [vismodegib] + Nc1ccn([C@@H]2O[C@H](CO)[C@@H](O)C2(F)F)c(=O)n1 [gemcitabine] (first compound 5 µM, partner dose 0.002 µM) | 92.6%
CCCS(=O)(=O)Nc1ccc(F)c(C(=O)c2c[nH]c3ncc(Cl)cc23)c1F + O=C(CCCCCCC(=O)Nc1ccccc1)NO [vorinostat] (first compound 0.4 µM, partner dose 0.4 µM) | 66.8%
CN(c1ncccc1CNc1nc(Nc2ccc3c(c2)CC(=O)N3)ncc1C(F)(F)F)S(C)(=O)=O + Cn1nnc2c(C(N)=O)ncn2c1=O [temozolomide] (first compound 0.4 µM, partner dose 10 µM) | 56.2%
CCCS(=O)(=O)Nc1ccc(F)c(C(=O)c2c[nH]c3ncc(Cl)cc23)c1F + COc1ccc(Cl)c(Nc2nc3ccccc3nc2NS(=O)(=O)c2cccc(NC(=O)C(C)(C)N)c2)c1 [XL147] (first compound 0.4 µM, partner dose 4 µM) | 53.2%
NC1(c2ccc(-c3nc4ccn5c(=O)[nH]nc5c4cc3-c3ccccc3)cc2)CCC1 + Cn1c(=O)n(-c2ccc(C(C)(C)C#N)cc2)c2c3cc(-c4cnc5ccccc5c4)ccc3ncc21 [NVP-BEZ235] (first compound 2 µM, partner dose 0.02 µM) | 62%
NC1(c2ccc(-c3nc4ccn5c(=O)[nH]nc5c4cc3-c3ccccc3)cc2)CCC1 + Cc1nc(Nc2ncc(C(=O)Nc3c(C)cccc3Cl)s2)cc(N2CCN(CCO)CC2)n1 [dasatanib] (first compound 2 µM, partner dose 0.02 µM) | 45.7%
NC1(c2ccc(-c3nc4ccn5c(=O)[nH]nc5c4cc3-c3ccccc3)cc2)CCC1 + O=C(Nc1cccc(Cl)c1)Nc1ncc(CCNc2ncnc3ccsc23)s1 [SNS314] (first compound 2 µM, partner dose 0.004 µM) | 78.7%
CCCS(=O)(=O)Nc1ccc(F)c(C(=O)c2c[nH]c3ncc(Cl)cc23)c1F + Cc1ccc(NC(=O)c2cccc(N(C)C)c2)cc1NC(=O)c1ccc(O)cc1 [ZM336372] (first compound 0.4 µM, partner dose 10 µM) | 76.7%
CCCS(=O)(=O)Nc1ccc(F)c(C(=O)c2c[nH]c3ncc(Cl)cc23)c1F + Nc1nc(F)nc2c1ncn2[C@@H]1O[C@H](CO)[C@@H](O)[C@@H]1O [fludarabine] (first compound 0.4 µM, partner dose 1 µM) | 47.5%
CS(=O)(=O)c1ccc(C(=O)Nc2ccc(Cl)c(-c3ccccn3)c2)c(Cl)c1 [vismodegib] + C[C@@H](Oc1cc(-c2cnn(C3CCNCC3)c2)cnc1N)c1c(Cl)ccc(F)c1Cl [Crizotinib] (first compound 5 µM, partner dose 1 µM) | 76.5%
C=C(c1ccc(C(=O)O)cc1)c1cc2c(cc1C)C(C)(C)CCC2(C)C [Bexarotene] + CC1(C)NC(=O)N(c2ccc([N+](=O)[O-])c(C(F)(F)F)c2)C1=O [nilutamide] (first compound 10 µM, partner dose 5 µM) | 109%
NC1(c2ccc(-c3nc4ccn5c(=O)[nH]nc5c4cc3-c3ccccc3)cc2)CCC1 + C[C@@H]1CCN(C(=O)CC#N)C[C@@H]1N(C)c1ncnc2[nH]ccc12 [CP690550] (first compound 2 µM, partner dose 5 µM) | 106%
CN(c1ncccc1CNc1nc(Nc2ccc3c(c2)CC(=O)N3)ncc1C(F)(F)F)S(C)(=O)=O + CC(=O)c1c(C)c2cnc(Nc3ccc(N4CCNCC4)cn3)nc2n(C2CCCC2)c1=O [palbociclib] (first compound 0.4 µM, partner dose 0.2 µM) | 49.4%
